To fix the notation:
B1: chr10:15076986:15077088:-|3pUTR|ENSG00000176244|unk|total|mutant (ssRNA)
RNA: GGGAGUUCUACAGUCCGACGAUCUUUUCCUUUAAGAAGAUACCCAGCCGUGGGAUUGCUGGGCCGAAUGGCCGUUCUAUUUUCCGUUCCAUGAGAAAUUUCCGUGCUGUUUUUCACCGAGGUUGUACUAAUUUACAUUCCCACCAACAGAGGAUUGAGCAUCA
B2: chr13:69700593:69701701:-|three_prime_utr|ENSG00000150361|control|control|control (ssRNA)
RNA: GGGAGUUCUACAGUCCGACGAUCUUGAAUGGCAAGAAUGAGAACUUCCAGAGAUGAAAACUCUUCAAGAACAAGGAUCUCUGUAGCGUUACCUACUGAUGUUGAAAGAGUUAGUAGAUCAAACAGAAUAGUAGGAAACAAGAACAACAGAGGAUUGAGCAUCA
B3: chr8:103442975:103443076:+|3pUTR|ENSG00000164934|msi1|FALSE|bound_elsewhere (ssRNA)
RNA: GGGAGUUCUACAGUCCGACGAUCGGACUAGAUUAAUUGCAAACAUUUUAGUUAUAUGUGUAGAGCUUUAUUGUUACUCCUUUUAGCUACCCUGAAAAAUGAUCCUUAAAGGUGGCCUAGUUGGUAAGACUGUUUUAUCCUUAACAACAGAGGAUUGAGCAUCA
B4: chr12:39369705:39369875:-|CDS|ENSG00000139116|unk|FALSE|unique (ssRNA)
RNA: GGGAGUUCUACAGUCCGACGAUCGGGUAUUAUUUCUCGAGCUGUUAAACACCUUUUUAAGAGUAUUGAAGAAAAAAAACACAUAGCAAUUAAAAAUGGGCUUCCUGCUCCAGAUUUUAAAGUGAAUGCCCAAUUCUUAGAGGUCAACAGAGGAUUGAGCAUCA
B5: chr2:105361111:105361195:-|3pUTR|ENSG00000115641|msi1_unk|total|mutant (ssRNA)
RNA: GGGAGUUCUACAGUCCGACGAUCCUUUCUCACCCAGGCAAUCUUGCCUUCUGGUUUCUUCCAGCCACAUUGAGACUUUCUUCCCGUGCUUUUCAGUGAUACUCACGUUUGCUUAAACCCUUCCGUGCUUUGUGACCGUUCAGUCAACAGAGGAUUGAGCAUCA
B6: chr1:6525536:6525637:-|3pUTR|ENSG00000162408|msi1|total|mutant (ssRNA)
RNA: GGGAGUUCUACAGUCCGACGAUCACAGUUUGUGUGCCAUUAAAACAGAGAUUCCUCAGAAAGUUCUUCAGGGACCUGGUUAUCCGAAUCAGGAUAAAAAUAAGGAAACUGGGGCCAUUACAAUGUACCGAGAAGGAAGGAAGACAACAGAGGAUUGAGCAUCA
B7: chr7:94910433:94910544:+|CDS|ENSG00000158528|unk|FALSE|bound_elsewhere (ssRNA)
RNA: GGGAGUUCUACAGUCCGACGAUCCUGGAAAAAACAGAUGGCUCAGUUGUUAAGUUGGAGUCUUCUGUUUCUGAACGAAUUAGUAGAUUUGACACUAUGUACGAUGGCCCUUCAUAUUCCAAGUUCACUGAGACUCGAAAGAUGCAACAGAGGAUUGAGCAUCA
B8: chr6:143501988:143502101:-|CDS|ENSG00000001036|unk|total|mutant (ssRNA)
RNA: GGGAGUUCUACAGUCCGACGAUCUUCAUGUGGAGGAAAUCUUUUGAUGAAUAUUGGGCCCACACCCGAUGGCACCAUUUCUGCCGUUUUUGAGGAGCGACUGAGGCAAAUGGGGUCCUGGCUAAAAGUCAAUGGAGAAGCUAUCAACAGAGGAUUGAGCAUCA
B9: chr9:33053202:33053303:-|CDS|ENSG00000122692|msi1|total|mutant (ssRNA)
RNA: GGGAGUUCUACAGUCCGACGAUCCCUAAAACUUCCGAAAUUUUUAUACCUAAAAAAGGUUUAUAACUUAAAUUUCUGUGUGGCCGAUCUGGAAUAUGAAGACCACAGAAUGUUCAAAUACCUUUAAAUCCCUGGGCAGCACCGCAACAGAGGAUUGAGCAUCA
B10: chr7:44064065:44064166:+|3pUTR|ENSG00000136279|msi1|FALSE|unique (ssRNA)
RNA: GGGAGUUCUACAGUCCGACGAUCGCACACCCUUCUAGCCUUUCCAGGACUCAACAAGCUUUAAGGUCAUUCAGAUGCUAAUUUAGACUGCCCUUGUGUCAGAAUACUAAGGUGGGAGGCGGAGCGGAGGUGCCAGUCACUCUGCAACAGAGGAUUGAGCAUCA
B11: ENSG00000136451:be:win_3451|3pUTR|ENSG00000136451|bound_else_gene|NA|bound_elsewhere_windowed (ssRNA)
RNA: GGGAGUUCUACAGUCCGACGAUCCAAAAUGUAGAGAAAAAUAUGUAGCUAUGACUUUGUUACAACUGUUCUUAUCCACAGUACAAAAAUGGUUUGUUUUUAAUAUGUAGAGCAUUAUGUGUGGACUACUGGAAGGACUCGUGUCAACAGAGGAUUGAGCAUCA
B12: chr15:49876277:49876523:-|three_prime_utr|ENSG00000104043|control|control|control (ssRNA)
RNA: GGGAGUUCUACAGUCCGACGAUCUCUGCUUUUUAACAAGCGUAAAUUUUUCAUUUGCGUGUUGCAUGGAAUCUACACCUCAUUAGUCCUUUUCUUCAUCCCCUAUGGGGCCUUUUACAACGUGGCUGGAGAAGAUGGGCAACACAACAGAGGAUUGAGCAUCA
B13: ENSG00000107863:be:win_2551|CDS|ENSG00000107863|bound_else_gene|NA|bound_elsewhere_windowed (ssRNA)
RNA: GGGAGUUCUACAGUCCGACGAUCUUAAUUCGCCGUCAGCUCUCACAUGACCACGAAUCUGUUGGCCCUCCUAGCCUGGAUGCUCAGCCCAACUCAAAGACAGAAAGAUCAAAAUCAUAUGAUGAGGGUCUGGAUGAUUACAGACAACAGAGGAUUGAGCAUCA
B14: chr2:27781378:27781788:-|three_prime_utr|ENSG00000171174|control|control|control (ssRNA)
RNA: GGGAGUUCUACAGUCCGACGAUCAACACAGUCAUCUUACCCUUACAAAAAAGACCUUCCGCUUACUCUGUUUUGAUUGCUAUUAGUCCCAAAAUAAAUAUACCUGGGAAUAAAAUGUACUUGGGGGUGGCUGCUCCUGGCUAACAACAGAGGAUUGAGCAUCA

This is one part of the list.

In this experiment the target is MSI1 full-length (mouse, UniProt Q61474 1-362). Briefly: nsRBNS (natural sequence RNA bind-n-seq); RBNS binding buffer (assumed for nsRBNS): 25 mM Tris pH 7.5, 150 mM KCl, 3 mM MgCl2, 0.01% Triton X-100, 500 ug/ml BSA, 20 U/ml SUPERase-In, 4 C; UNK is unkempt and MSI1 is Musashi-1; names of the RNAs are library labels; protein concentration not given here; high values mean tight binding.
UniProt Q61474, sequence (Q61474 whole entry): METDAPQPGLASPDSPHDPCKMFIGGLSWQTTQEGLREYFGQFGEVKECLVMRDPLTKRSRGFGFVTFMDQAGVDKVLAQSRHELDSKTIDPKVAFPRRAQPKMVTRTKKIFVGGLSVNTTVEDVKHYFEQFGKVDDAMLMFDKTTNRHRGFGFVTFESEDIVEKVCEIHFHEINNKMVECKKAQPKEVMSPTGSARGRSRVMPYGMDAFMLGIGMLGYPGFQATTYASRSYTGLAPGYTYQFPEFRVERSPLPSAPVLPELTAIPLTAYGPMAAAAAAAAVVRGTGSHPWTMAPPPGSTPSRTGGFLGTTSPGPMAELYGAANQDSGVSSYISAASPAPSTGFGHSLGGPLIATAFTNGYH
The molecule B1 yielded a binding signal of 0.339 enrichment R.

B2: the binding signal amounted to 4.13 enrichment R.

Turning to B3, the binding signal was 12.3 enrichment R.

Molecule B4 returned a binding signal of 4 enrichment R.

For the molecule B5, the binding signal turned out to be 0.426 enrichment R.

Turning to B6, the binding signal came out at 0.386 enrichment R.

For B7, the binding signal is 0.762 enrichment R.

Turning to B8, the binding signal amounted to 0.472 enrichment R.

Regarding B9, the binding signal was determined as 0.369 enrichment R.

The molecule B10 yielded a binding signal of 0.56 enrichment R.

B11 came in with a binding signal of 1.21 enrichment R.

On to B12, for which the binding signal amounted to 0.455 enrichment R.

B13: the binding signal was 0.342 enrichment R.

B14 displayed a binding signal of 1.19 enrichment R.

The values above are taken from PMC12136788.
